Here are results for three molecules from PMC11912937 (The Journal of Cell Biology, 2025).

The target in this test is T1, FACT complex (SPT16/SSRP1), full length, untreated (human, UniProt Q9Y5B9; Q08945, phosphorylated as purified from insect cells; residues not printed | phosphorylated as purified from insect cells; residues not given).
T1 construct: SPT16, FACT subunit; SSRP1, FACT subunit; His tags are followed by a TEV site; cleavage is not described; also called FAcilitates Chromatin Transcription complex; full-length FACT; source: Tnao38 insect cells (baculovirus), purified (HisTrap, HiTrap Q, SEC)
The test is described as follows: pull-down; amylose resin, MBP-CENP-C fusion proteins (fragments or full-length ^MBPCENP-C^EGFP) as baits, FACT or FACT constructs as preys; 3 µM each; 20 mM Hepes pH 6.8, 300 mM NaCl, 2.5% glycerol, 1 mM TCEP, 0.01% Tween; 4°C. Particulars: both partners purified.

B1: ^MBPCENP-C^[…]-His (domain or fragment)
chain: not shown
notes: not shown: MBP, N-terminal, kept
Regarding B1, the binding result is listed as “binds”.

B2: ^MBPCENP-C^[…]-His (domain or fragment, human)
chain: EMYSKNAEKPSRSKRTIKQKQRRKF[sequence of about 120 residues omitted]SPVYSNSSVRNELPMHHNSSRKSTKKTNQSSKNIRKKTIPLKRQKTATKGNQRVQKFLNAEGS
notes: as for B1
As for B2, the binding result is on record as “binds”.

B3: ^MBPCENP-C^721-C (domain or fragment)
chain: not shown
notes: CENP-C, […] (721 to the C-terminus); The methods say that it dimerizes; also called CENP-C^[…]; source: plasmid as previously described; purified (HisTrap, heparin, SEC on Superose 6); not shown: MBP, N-terminal, kept
As for B3, the binding result is recorded as “binds”.
